# From PubChem BioAssay AID504333 (National Center for Advancing Translational Sciences (NCATS), 2011)
# Hit rate of the full screen: of about 360,000 compounds, about 16,000 (4.4%) were called active. The shares of active, inactive and inconclusive entries below differ from those in the screen. The call rests on the fitted dose curve; in most records, active means well fitted inhibition curve with a large enough effect; inconclusive means small, poorly fitted or top-dose-only effect; inactive means no such curve, though single readings can be large or run the other way. Where the call is inconclusive, the potency comes from a doubtful curve fit.
# Target: Bromodomain adjacent to zinc finger domain protein 2B (Homo sapiens) (UniProt Q9UIF8)
# Experiment: qHTS Assay for Inhibitors of BAZ2B; further: nearly all actives have a fitted effect of over 60% in size
# Conditions: AlphaScreen BAZ2B-H3K14Ac peptide displacement; series mostly up to 114 µM
# Outline: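 Protein-peptide AlphaScreen: BAZ2B 50 nM, b-H3K14Ac 50 nM, 1x PBS pH 7.4 + 0.01% Tween-20. Preincubation 30 min RT; cpd 30 min RT (top 110 uM); beads 20 min RT, light-protected.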
# Potency means the concentration at half of the fitted maximal effect; tags describe the fitted curve by direction and shape.
# UniProt Q9UIF8, sequence (Q9UIF8 whole entry, looked up, the tested form may be a part): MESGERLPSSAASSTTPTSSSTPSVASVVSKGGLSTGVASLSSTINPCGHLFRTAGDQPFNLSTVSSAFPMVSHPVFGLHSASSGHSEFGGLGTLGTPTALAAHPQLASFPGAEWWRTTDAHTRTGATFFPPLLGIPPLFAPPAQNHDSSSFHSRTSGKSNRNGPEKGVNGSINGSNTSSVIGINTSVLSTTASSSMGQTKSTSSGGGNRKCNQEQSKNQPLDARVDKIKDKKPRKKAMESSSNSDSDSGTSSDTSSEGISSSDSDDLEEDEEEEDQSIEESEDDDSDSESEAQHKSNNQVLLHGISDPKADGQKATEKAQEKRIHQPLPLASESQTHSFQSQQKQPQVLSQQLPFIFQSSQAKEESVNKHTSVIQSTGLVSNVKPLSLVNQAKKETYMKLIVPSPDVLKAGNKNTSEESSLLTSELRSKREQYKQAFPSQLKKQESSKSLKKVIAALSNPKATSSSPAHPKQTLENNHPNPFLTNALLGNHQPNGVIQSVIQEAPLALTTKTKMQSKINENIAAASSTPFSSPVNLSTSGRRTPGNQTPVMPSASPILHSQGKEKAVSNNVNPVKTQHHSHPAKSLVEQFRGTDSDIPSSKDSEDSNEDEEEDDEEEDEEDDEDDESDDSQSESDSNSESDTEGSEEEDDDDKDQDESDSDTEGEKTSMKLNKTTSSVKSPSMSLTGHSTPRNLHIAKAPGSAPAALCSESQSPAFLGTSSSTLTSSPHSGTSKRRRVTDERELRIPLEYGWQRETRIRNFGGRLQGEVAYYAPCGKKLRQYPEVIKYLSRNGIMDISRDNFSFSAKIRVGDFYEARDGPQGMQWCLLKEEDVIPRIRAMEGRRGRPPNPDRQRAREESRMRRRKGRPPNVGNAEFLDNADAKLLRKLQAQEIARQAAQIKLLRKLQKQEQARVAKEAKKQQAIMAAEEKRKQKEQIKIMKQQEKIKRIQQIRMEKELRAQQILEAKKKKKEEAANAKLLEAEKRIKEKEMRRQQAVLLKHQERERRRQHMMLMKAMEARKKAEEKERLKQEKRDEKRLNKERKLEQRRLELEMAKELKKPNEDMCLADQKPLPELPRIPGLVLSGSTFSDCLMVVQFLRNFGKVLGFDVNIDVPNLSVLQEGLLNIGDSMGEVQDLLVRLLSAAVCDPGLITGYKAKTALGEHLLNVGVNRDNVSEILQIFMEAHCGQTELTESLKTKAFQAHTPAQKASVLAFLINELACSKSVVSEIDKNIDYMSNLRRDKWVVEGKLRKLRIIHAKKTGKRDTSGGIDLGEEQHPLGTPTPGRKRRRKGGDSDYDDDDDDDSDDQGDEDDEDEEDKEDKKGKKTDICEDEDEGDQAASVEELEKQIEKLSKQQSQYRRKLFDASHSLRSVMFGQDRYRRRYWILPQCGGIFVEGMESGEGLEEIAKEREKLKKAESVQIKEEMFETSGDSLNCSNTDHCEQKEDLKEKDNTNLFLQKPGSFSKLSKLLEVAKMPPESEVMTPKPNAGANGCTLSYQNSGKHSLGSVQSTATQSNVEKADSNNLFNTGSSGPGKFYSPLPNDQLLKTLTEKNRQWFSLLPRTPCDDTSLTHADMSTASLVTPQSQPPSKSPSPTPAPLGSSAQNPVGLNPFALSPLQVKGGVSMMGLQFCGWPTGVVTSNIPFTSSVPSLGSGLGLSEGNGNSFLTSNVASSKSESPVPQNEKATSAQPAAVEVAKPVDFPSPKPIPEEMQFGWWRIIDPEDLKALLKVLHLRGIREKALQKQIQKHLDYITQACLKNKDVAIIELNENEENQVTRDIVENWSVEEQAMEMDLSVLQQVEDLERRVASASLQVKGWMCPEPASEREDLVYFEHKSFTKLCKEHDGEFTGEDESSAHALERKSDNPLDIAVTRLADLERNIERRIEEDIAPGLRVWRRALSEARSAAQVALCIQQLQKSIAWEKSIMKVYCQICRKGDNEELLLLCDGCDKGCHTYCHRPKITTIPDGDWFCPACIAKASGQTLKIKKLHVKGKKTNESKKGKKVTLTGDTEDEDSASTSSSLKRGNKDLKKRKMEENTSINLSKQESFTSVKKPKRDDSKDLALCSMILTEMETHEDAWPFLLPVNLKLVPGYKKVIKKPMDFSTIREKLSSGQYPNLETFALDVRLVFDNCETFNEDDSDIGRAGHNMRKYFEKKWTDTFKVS
row,Compound,Potency
1,COc1ccc(/C=c2\s/c(=C(/C#N)C(=O)NCc3ccco3)n(-c3ccccc3)c2=O)cc1,inactive
2,O=C(O)CCCCCN1C(=O)C(O)=C(C(=O)/C=C/c2ccccc2)C1c1cccc([N+](=O)[O-])c1 (stereo not given),"inconclusive: 70.8 µM [inhibitor, partial curve]"
3,COc1ccc(CC(=O)NNC(=O)CSc2nc(C)c(C)c(=O)[nH]2)cc1,inactive
4,O=[N+]([O-])c1ccc(/C=N/Nc2nc(-c3ccccc3)c3cc(Br)ccc3n2)o1,"inconclusive: 89.1 µM [inhibitor, single point]"
5,COc1cccc(OCC(O)CNC(=O)c2oc3ccc(C)cc3c2C)c1 (stereo not given),inactive
6,O=C(O)c1ccccc1C(=O)Nn1cnnc1,inactive
7,CCN(CC)S(=O)(=O)c1ccc(OC)c(NC(=S)Nc2ccc(C)c(C)c2)c1,"inconclusive: 70.8 µM [inhibitor, single point]"
8,Cc1[nH]n(-c2cccc3ccccc23)c(=O)c1/C=N/c1sc2c(c1C#N)CCC2,"inconclusive: 39.8 µM [inhibitor, full curve]"
9,CC(=O)NC(c1ccc(Cl)cc1Cl)c1ccc2cccnc2c1O (stereo not given),active: 28.2 µM
10,c1ccc2c3c(c(CN4CCCCC4)cc2c1)COC3,"inconclusive: 89.1 µM [inhibitor, single point]"
11,Cc1ccc(-n2c(C)nnc2SCC(=O)N2CCc3ccccc3C2)cc1C,"inconclusive: 79.4 µM [inhibitor, single point]"
12,S=c1nc(C2COc3ccccc3O2)[nH][nH]1 (stereo not given),"inconclusive: 50.1 µM [inhibitor, partial curve]"
13,COC(=O)c1ccccc1-c1ccc(/C=C2\C(=O)N(c3ccccc3)N=C2c2ccccc2)o1,active: 3.16 µM
14,COC(=O)c1ccccc1S(=O)(=O)N1CCn2cccc2C1C (stereo not given),"inconclusive: 79.4 µM [inhibitor, partial curve]"
15,COc1cccc(CNc2ccc3c(c2)ncn3C(C)C)c1OC,"inconclusive: 89.1 µM [inhibitor, single point]"
16,COc1ccc(CN2CCCC(C(=O)N3CCc4ccccc4C3)C2)cc1OC (stereo not given),active: 89.1 µM
17,COc1cccc(N2CCN(c3ccc(N4C(=O)CCC4=O)cc3[N+](=O)[O-])CC2)c1,"inconclusive: 35.5 µM [inhibitor, partial curve]"
18,COc1ccccc1/C=C/c1nc(C#N)c(N2CCCCCC2)o1,"inconclusive: 31.6 µM [inhibitor, partial curve]"
19,Cc1ccc(CSc2sc(C(=O)c3ccccc3)c(N)c2C#N)cc1,inactive
20,Cc1ccc(S(=O)(=O)NC(C(=O)Oc2ccc3c(C)c(Cl)c(=O)oc3c2)c2ccccc2)cc1 (stereo not given),inactive
